These are yes or no findings as the source states them, for the method shown. Some entries that bind do so weakly or less than the wild type. Sequences can lack the tags named with a protein.

By UniProt entry, the sequences of proteins in these tests, tags left out. Chains listed by the source or under a name are the forms on record and can include a tag or linker. Residues count along the entry.
human RPTPζ ectodomain (amino acids 34-629) fused to human IgG1 Fc or to FcYTS (P23471, residues 34-629): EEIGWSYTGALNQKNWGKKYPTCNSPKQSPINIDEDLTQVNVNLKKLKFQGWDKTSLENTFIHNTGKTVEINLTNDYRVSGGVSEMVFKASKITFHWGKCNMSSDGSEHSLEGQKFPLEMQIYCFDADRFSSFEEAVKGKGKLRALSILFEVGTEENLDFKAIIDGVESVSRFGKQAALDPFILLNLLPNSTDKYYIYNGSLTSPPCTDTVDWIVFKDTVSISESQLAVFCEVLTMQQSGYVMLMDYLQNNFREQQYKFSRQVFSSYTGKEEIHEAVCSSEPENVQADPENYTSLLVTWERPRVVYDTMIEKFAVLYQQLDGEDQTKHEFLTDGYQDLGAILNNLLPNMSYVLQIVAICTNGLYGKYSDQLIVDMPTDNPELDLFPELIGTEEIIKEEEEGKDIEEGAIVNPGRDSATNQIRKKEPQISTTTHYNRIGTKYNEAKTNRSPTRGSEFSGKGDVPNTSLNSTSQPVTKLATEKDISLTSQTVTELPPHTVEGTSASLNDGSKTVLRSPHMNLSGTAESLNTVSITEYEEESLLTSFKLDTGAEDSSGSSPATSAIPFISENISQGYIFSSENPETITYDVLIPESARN
FN domain of human RPTPζ (amino acid residues 310-410) fused to human IgG1 Fc (P23471, residues 310-410): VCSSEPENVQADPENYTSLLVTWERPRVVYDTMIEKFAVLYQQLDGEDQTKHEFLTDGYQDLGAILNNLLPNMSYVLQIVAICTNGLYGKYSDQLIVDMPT
UniProt Q05909, residues 54-728: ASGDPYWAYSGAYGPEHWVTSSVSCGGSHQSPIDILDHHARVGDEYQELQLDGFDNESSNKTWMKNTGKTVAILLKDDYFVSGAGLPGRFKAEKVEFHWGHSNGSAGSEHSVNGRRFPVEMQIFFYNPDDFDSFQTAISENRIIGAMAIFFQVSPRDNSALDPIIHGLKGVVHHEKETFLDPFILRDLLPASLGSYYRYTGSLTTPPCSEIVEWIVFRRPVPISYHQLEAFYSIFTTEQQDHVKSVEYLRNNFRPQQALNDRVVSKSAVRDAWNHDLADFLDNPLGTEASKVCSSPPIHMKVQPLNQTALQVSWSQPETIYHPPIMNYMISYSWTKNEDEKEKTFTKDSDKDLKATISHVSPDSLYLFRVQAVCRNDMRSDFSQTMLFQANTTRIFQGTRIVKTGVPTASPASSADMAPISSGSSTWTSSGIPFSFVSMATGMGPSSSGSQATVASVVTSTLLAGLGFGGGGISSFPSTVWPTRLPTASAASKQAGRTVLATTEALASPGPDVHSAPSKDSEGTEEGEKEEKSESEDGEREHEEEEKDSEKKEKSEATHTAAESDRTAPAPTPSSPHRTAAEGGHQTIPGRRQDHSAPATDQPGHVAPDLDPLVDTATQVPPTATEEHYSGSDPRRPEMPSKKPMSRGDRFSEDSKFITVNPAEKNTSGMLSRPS

What all share (test): AlphaScreen or HTRF; conditioned media of Fc and FcYTS fusion proteins mixed with Strep-Tactin donor beads and protein A acceptor beads; 150 mM NaCl, 20 mM Na-Hepes pH 7.5, 2 mM CaCl2, 2 mM MgCl2, 2 mg/ml BSA, 0.2% Triton-X100, 0.2% Tween-20; 1 h at room temperature; signal divided by that of the FcYTS protein with Fc only; a pair counts with a signal over background of at least two in each orientation
(Alpha assays give light when donor and acceptor beads are brought close together.)

Experiment [1] concerns the target human RPTPζ ectodomain (amino acids 34-629) fused to human IgG1 Fc or to FcYTS (human) (UniProt P23471).
Substrate in experiment [2]: FN domain of human RPTPζ (amino acid residues 310-410) fused to human IgG1 Fc (human) (UniProt P23471)
In experiment [3] the target is mouse RPTPγ ectodomain (amino acids 54-728) fused to Fc or FcYTS (mouse) (UniProt Q05909).
Experiment [4] deals with aggrecan construct from which the GAG regions were deleted (residues 31-2530 with 680-2276 replaced by GS) fused to Fc or FcYTS (UniProt P16112).

B1: extracellular region of human contactin-1 excluding the GPI anchor region (amino acids 1-991) fused to Fc or FcYTS (Fc fusion, UniProt Q12860 21-991)
chain: EFTWYRRYGHGVSEEDKGFGPIFEEQPINTIYPEESLEGKVSLNCRARASPFPVYKWRMNNGDVDLTSDRYSMVGGNLVINNPDKQKDAGIYYCLASNNYGMVRSTEATLSFGYLDPFPPEERPEVRVKEGKGMVLLCDPPYHFPDDLSYRWLLNEFPVFITMDKRRFVSQTNGNLYIANVEASDKGNYSCFVSSPSITKSVFSKFIPLIPIPERTTKPYPADIVVQFKDVYALMGQNVTLECFALGNPVPDIRWRKVLEPMPSTAEISTSGAVLKIFNIQLEDEGIYECEAENIRGKDKHQARIYVQAFPEWVEHINDTEVDIGSDLYWPCVATGKPIPTIRWLKNGYAYHKGELRLYDVTFENAGMYQCIAENTYGAIYANAELKILALAPTFEMNPMKKKILAAKGGRVIIECKPKAAPKPKFSWSKGTEWLVNSSRILIWEDGSLEINNITRNDGGIYTCFAENNRGKANSTGTLVITDPTRIILAPINADITVGENATMQCAASFDPALDLTFVWSFNGYVIDFNKENIHYQRNFMLDSNGELLIRNAQLKHAGRYTCTAQTIVDNSSASADLVVRGPPGPPGGLRIEDIRATSVALTWSRGSDNHSPISKYTIQTKTILSDDWKDAKTDPPIIEGNMEAARAVDLIPWMEYEFRVVATNTLGRGEPSIPSNRIKTDGAAPNVAPSDVGGGGGRNRELTITWAPLSREYHYGNNFGYIVAFKPFDGEEWKKVTVTNPDTGRYVHKDETMSPSTAFQVKVKAFNNKGDGPYSLVAVINSAQDAPSEAPTEVGVKVLSSSEISVHWEHVLEKIVESYQIRYWAAHDKEEAANRVQVTSQEYSARLENLLPDTQYFIEVGACNSAGCGPPSDMIEAFTKKAPPSQPPRIISSVRSGSRYIITWDHVVALSNESTVTGYKVLYRPDGQHDGKLYSTHKHSIEVPIPRDGEYVVEVRAHSDGGDGVVSQVK
As to B1, the binding entry in experiment [1] was “binds”.

B2: domains FN1-Fg of human tenascin-R (residues 325-1358) fused to Fc or FcYTS (Fc fusion, UniProt Q92752 325-1358)
chain: AVAPPEDLRVAGISDRSIELEWDGPMAVTEYVISYQPTALGGLQLQQRVPGDWSGVTITELEPGLTYNISVYAVISNILSLPITAKVATHLSTPQGLQFKTITETTVEVQWEPFSFSFDGWEISFIPKNNEGGVIAQVPSDVTSFNQTGLKPGEEYIVNVVALKEQARSPPTSASVSTVIDGPTQILVRDVSDTVAFVEWIPPRAKVDFILLKYGLVGGEGGRTTFRLQPPLSQYSVQALRPGSRYEVSVSAVRGTNESDSATTQFTTEIDAPKNLRVGSRTATSLDLEWDNSEAEVQEYKVVYSTLAGEQYHEVLVPRGIGPTTRATLTDLVPGTEYGVGISAVMNSQQSVPATMNARTELDSPRDLMVTASSETSISLIWTKASGPIDHYRITFTPSSGIASEVTVPKDRTSYTLTDLEPGAEYIISVTAERGRQQSLESTVDAFTGFRPISHLHFSHVTSSSVNITWSDPSPPADRLILNYSPRDEEEEMMEVSLDATKRHAVLMGLQPATEYIVNLVAVHGTVTSEPIVGSITTGIDPPKDITISNVTKDSVMVSWSPPVASFDYYRVSYRPTQVGRLDSSVVPNTVTEFTITRLNPATEYEISLNSVRGREESERICTLVHTAMDNPVDLIATNITPTEALLQWKAPVGEVENYVIVLTHFAVAGETILVDGVSEEFRLVDLLPSTHYTATMYATNGPLTSGTISTNFSTLLDPPANLTASEVTRQSALISWQPPRAEIENYVLTYKSTDGSRKELIVDAEDTWIRLEGLLENTDYTVLLQAAQDTTWSSITSTAFTTGGRVFPHPQDCAQHLMNGDTLSGVYPIFLNGELSQKLQVYCDMTTDGGGWIVFQRRQNGQTDFFRKWADYRVGFGNVEDEFWLGLDNIHRITSQGRYELRVDMRDGQEAAFASYDRFSVEDSRNLYKLRIGSYNGTAGDSLSYHQGRPFSTEDRDNDVAVTNCAMSYKGAWWYKNCHRTNLNGKYGESRHSQGINWYHWKGHEFSIPFVEMKMRPYNHRLMAGRKRQSLQF
With B2, the binding result in experiment [2] is “binds”; in experiment [3] it was “no binding”; in experiment [4], “binds”; in experiment [1] it was “binds”.

B3: EGF repeats of human tenascin-R (residues 201-324) fused to Fc or FcYTS (Fc fusion, UniProt Q92752 201-324)
chain: EPYCPLGCSSRGVCVDGQCICDSEYSGDDCSELRCPTDCSSRGLCVDGECVCEEPYTGEDCRELRCPGDCSGKGRCANGTCLCEEGYVGEDCGQRQCLNACSGRGQCEEGLCVCEEGYQGPDCS
Take B3: the binding result in experiment [1] is reported as “no binding”.

Source of the values: paper PMC10371798.
